Assay results published in PMC4336329 (PLoS ONE, 2015).
Out of some 310,000 compounds screened, about 14,000 (4.5%) showed an effect of 50% or more. The effect is printed as a negative number. This is one part of the list.

These compounds were tested against human ether-à-go-go-related gene (hERG) potassium channel (human, UniProt Q12809) (assay: primary screen, population patch clamp on CHO cells stably expressing hERG).
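Also: peak tail current of the secondary pulse compared with the same well before compound.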

Sequence of human ether-à-go-go-related gene (hERG) potassium channel (Q12809 whole entry, looked up): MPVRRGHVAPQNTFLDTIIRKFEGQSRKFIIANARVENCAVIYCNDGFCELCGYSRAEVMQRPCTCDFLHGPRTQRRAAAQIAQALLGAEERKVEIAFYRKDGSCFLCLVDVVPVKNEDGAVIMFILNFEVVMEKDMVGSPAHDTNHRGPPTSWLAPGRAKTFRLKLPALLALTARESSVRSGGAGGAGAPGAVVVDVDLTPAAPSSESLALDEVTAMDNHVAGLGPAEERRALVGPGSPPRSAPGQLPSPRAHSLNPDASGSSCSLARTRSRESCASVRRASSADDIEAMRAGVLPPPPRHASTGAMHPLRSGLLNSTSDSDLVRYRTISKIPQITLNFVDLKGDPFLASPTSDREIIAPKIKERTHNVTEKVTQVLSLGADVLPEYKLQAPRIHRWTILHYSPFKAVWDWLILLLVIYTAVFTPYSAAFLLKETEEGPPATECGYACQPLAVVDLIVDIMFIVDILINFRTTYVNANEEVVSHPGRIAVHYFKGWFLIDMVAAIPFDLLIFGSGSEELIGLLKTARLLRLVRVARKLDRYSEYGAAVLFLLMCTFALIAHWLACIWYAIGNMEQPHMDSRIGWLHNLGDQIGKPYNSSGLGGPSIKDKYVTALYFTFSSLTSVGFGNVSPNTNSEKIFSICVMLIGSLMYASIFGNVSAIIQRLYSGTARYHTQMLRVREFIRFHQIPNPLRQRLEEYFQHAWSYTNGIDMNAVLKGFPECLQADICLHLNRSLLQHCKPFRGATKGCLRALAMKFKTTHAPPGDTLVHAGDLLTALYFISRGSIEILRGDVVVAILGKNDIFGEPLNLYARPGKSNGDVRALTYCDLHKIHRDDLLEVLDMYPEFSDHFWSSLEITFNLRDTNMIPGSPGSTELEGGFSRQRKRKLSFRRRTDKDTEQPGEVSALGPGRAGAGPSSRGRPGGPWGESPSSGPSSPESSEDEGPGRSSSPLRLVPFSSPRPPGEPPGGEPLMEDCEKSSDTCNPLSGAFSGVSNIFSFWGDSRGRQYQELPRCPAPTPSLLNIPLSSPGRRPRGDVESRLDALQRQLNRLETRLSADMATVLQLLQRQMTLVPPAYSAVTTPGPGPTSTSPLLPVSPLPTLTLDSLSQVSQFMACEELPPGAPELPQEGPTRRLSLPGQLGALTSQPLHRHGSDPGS

SMILES	hERG current change (%, negative = inhibition) at 10uM [%]
CCOC(=O)N1CCN(C(=O)COC(=O)CSc2cc(C)c(Br)cc2C)CC1	-38.5
C#CCN1C(=O)S/C(=C\c2cc3c(cc2OC)OCO3)C1=O	-18.2
Cc1c(NC(=O)Nc2cccc(C#N)c2)c(=O)n(-c2ccccc2)n1C	4.79
CCCn1c(SCC(=O)N2N=C3/C(=C/c4ccc(OC)cc4)CCCC3C2c2ccc(OC)cc2)n[nH]c1=O (centres unmarked)	9.91
CCOC(=O)C(C)Oc1ccc(NC(=O)C(Cl)(Cl)Cl)cc1 (centres unmarked)	-1.3
C=CCn1cnc2c(nnn2-c2ccc(C)c(Cl)c2)c1=O	9.05
CCOC(=O)Cn1nc(C)cc1NC(=O)c1ccncc1	16.8
CCOC(=O)c1c(C)[nH]c(C(=O)Cn2c(=O)c3c(ncn3CC)n(Cc3ccccc3)c2=O)c1C	-0.17
Cc1ccsc1/C=N/NC(=O)c1nnn(-c2nonc2N)c1-c1ccccc1	-9.93
COc1ccc(C(=O)NC(Cc2ccccc2)c2ccc3c(c2)OCCCO3)cc1 (centres unmarked)	0.594
Cc1cnc(C(=O)OCC(=O)c2ccc(C)s2)cn1	10.9
C1CCC(Nc2nc3nonc3nc2N2CCSCC2)C1	6.25
CC(C)(C)n1nc2c(c1NC(=O)c1ccccc1F)CS(=O)C2 (centres unmarked)	15.6
c1ccc(NCn2cncn2)nc1	17
CS(=O)(=O)c1ccc2nc(NC(=O)CN3C(=O)C4CC=CCC4C3=O)sc2c1 (centres unmarked)	22.4
COc1cccc(/C=N/n2c(SC)nnc2-c2ccccc2)c1OC	-34.9
O=c1/c(=C\c2ccc(O)cc2)sc2nc(-c3ccccc3)c(-c3ccccc3)n12	3.37
CN(C)/C=C1\C(=O)N(c2ccc(Cl)c(Cl)c2)CS1(=O)=O	13.7
O=C(CCC(=O)N1CCN(c2ccccc2)CC1)Nc1nnc(C2CCCCC2)s1	6.92
COC(=O)C[C@H]1c2cc(C(F)(F)F)ccc2S(=O)(=O)N1c1ccc(N(C)C)cc1	-20.9
Cn1nnnc1SCc1cccc(CSc2nnnn2C)n1	-7.41
CCN1CCN(C(c2cccs2)C(C)NC(=O)c2cccnc2)CC1 (centres unmarked)	14

SMILES	hERG current change (%, negative = inhibition) at 10uM [%]
O=C(CN1C(=O)COc2ccccc21)NCCN1CCc2ccccc2C1	2.95
COc1ccccc1OCCn1c(CO)nc2ccccc21	5.17
Cc1ccc(NC(=O)COc2cccc(-n3cnnn3)c2)cc1S(=O)(=O)N1CCOCC1	-24.3
CCOc1cc(C(=O)N2CCN(C/C=C/c3ccccc3)CC2)cc(OCC)c1OCC	-46.3
COc1cc(C(=O)OCC(=O)Nc2ccccc2C(=O)NC2CC2)c([N+](=O)[O-])cc1OC	-2.61
C=CCn1c(CNc2ccccc2)nnc1SCC(=O)N/N=C/c1ccc(O)cc1O	7.77
COc1ccc(OC)c(NC(=O)c2cc(S(=O)(=O)NCc3ccco3)ccc2F)c1	0.414
O=C(COC(=O)c1ccc2c(c1)C(=O)N(CCc1ccccc1)C2=O)Nc1ccc(OC(F)F)cc1	12.7
CC(C)(C)c1ccc(C(=O)C2CCCN(C(=O)CN3CCCC3=O)C2)cc1 (centres unmarked)	-7.36
COCCNC(=O)CCCCCn1c(=S)[nH]c2ccccc2c1=O	5.35
O=C(OCc1c(Cl)cccc1Cl)c1cccnc1	-7.88
Cc1n[nH]c(=O)c2c(NC(=O)COC(=O)c3ncc(Cl)c(Cl)c3Cl)oc(C)c12	-0.938
COc1ccc(NC(=O)/C(C#N)=C\c2ccc(-c3cccc(C(=O)O)c3C)o2)cc1	-9.67
O=C(CSc1nnc2ccccn12)NCc1ccc2c(c1)OCO2	7.16
COc1ccc(NC(=S)N(CCc2c(C)[nH]c3ccc(C)cc23)Cc2ccco2)cc1	6.18
O=C(N[C@@H](c1ccccc1)[C@@H]1C[C@H]1C(=O)NCc1ccccn1)OCc1ccccc1	-40.3
CCOc1ccc2nc(C)cc(Nc3cccc([N+](=O)[O-])c3)c2c1.Cl	-30.4
O=C(CN1CCN(c2ccc(F)cc2)CC1)N(C1CCCC1)C1CCS(=O)(=O)C1 (centres unmarked)	-40.4
Cc1cc(C)n(C(C)CNC(=O)c2ccc3c(c2)OCO3)n1 (centres unmarked)	14.2
C#Cc1ccc(CN2CCCC(C(=O)Nc3ccccc3Oc3cccnc3)C2)cc1 (centres unmarked)	-58.5
O=C(CNCC1CCCCC1)Nc1ccccc1N1CCCCC1.O=C(O)C(=O)O	-15.3
O=C(CCNC(=O)C1CCN(S(=O)(=O)c2ccc(F)cc2)CC1)NCc1ccc(Cl)cc1	12.7

SMILES	hERG current change (%, negative = inhibition) at 10uM [%]
CCOC(=O)c1c(C)[nH]c(C(=O)C(C)Cl)c1C (centres unmarked)	-8.78
CC(C)Cc1cc(CN2CCC(CO)(Cc3ccccc3)CC2)[nH]n1	-71.6
CCN(CCNC(=O)CN(C)S(=O)(=O)c1cccc2nsnc12)c1ccccc1	-37.5
CCOC(=O)C(C)(C)N(Cc1ccccc1C)S(=O)(=O)c1ccc(Cl)c([N+](=O)[O-])c1	1.31
Cc1ccc(NC(=O)Cn2c(O)c(N=NC(=O)c3cc([N+](=O)[O-])ccc3O)c3ccccc32)cc1	-7.35
O=C(CNC(=O)c1ccco1)NC1CCCCCC1	5.68
CCn1c(SCC(=O)N/N=C/c2ccc(C)o2)nnc1-c1ccccc1	-8.62
CCOC(=O)C1CCN(S(=O)(=O)c2c(Cl)ccc3nonc23)CC1	9.46
CC(=O)Nc1ccc(NC(=O)C2CC(=O)Nc3ncnn32)cc1 (centres unmarked)	7.42
O=C(NNC(=S)NC(=O)c1ccccc1[N+](=O)[O-])c1ccc(Cl)cc1Cl	-58.2
COc1ccc(NC(c2ccccc2)c2ccncc2)cc1.Cl (centres unmarked)	4.14
Cc1c(S(=O)(=O)Nc2ccc(Oc3ccccc3)cc2)c(=O)n(C)c(=O)n1C	-24.9
COc1ccc(-c2cc(C(F)(F)F)nc(N3CCOCC3)n2)cc1	18.9
O=C(CCCNC(=O)c1ccc(Cl)cc1)Nc1ccccc1C(F)(F)F	-2.39
COC(=O)c1nc(NC(=O)c2ccc(Cl)cc2)n[nH]1	19.7
COc1cccc(C(=O)Nc2c3c(nn2-c2ccc(Cl)cc2)CS(=O)(=O)C3)c1OC	-25.4
N#Cc1cccnc1N1CCN(C(=O)c2cccs2)CC1	-1.7
c1ccc2c(c1)[nH]c1ccccc12	-11.7
CNC(=S)N(Cc1cccs1)Cc1cc2cc(OC)ccc2[nH]c1=O	-5.11
CCN(CC)S(=O)(=O)c1ccc(C)c(NS(=O)(=O)c2cc(/C=C/C(=O)O)cc(OC)c2OC)c1	6.92
COc1cc(NC(=O)CSCc2ccc(Cl)cc2)c(C(=O)O)cc1OC	13.6
CC1CCCC(NC(=O)CNC(=S)N(Cc2ccccc2)Cc2cccs2)C1C (centres unmarked)	-5.47

SMILES	hERG current change (%, negative = inhibition) at 10uM [%]
CC(=O)c1cccc(NC(=O)C2C3C=CC(C4CC34)C2C(=O)O)c1 (centres unmarked)	-4.93
CCOC(=O)N1CCN(C(=O)CSc2nnc(-c3cccc(OC)c3)o2)CC1	-10.2
Cc1cc(C(F)(F)F)n2ncc(-c3ccccc3)c2n1	15
COC(=O)N/N=C/c1cc(N=Nc2ccccc2Cl)ccc1O	11.5
CCOc1ccc(NC(=O)CSc2nc(=O)n(CCN3CCOCC3)c3c2CCCC3)cc1	-28.1
Cn1c(/C=C/c2ccc([N+](=O)[O-])o2)nc2ccccc2c1=O	-24.2
O=C1CN(C(=O)CSc2nncs2)c2ccccc2N1	14.2
N#CC1=C(N)SC2(CCCCC2)SC1c1ccccc1 (centres unmarked)	13.3
CNc1nc2ccccc2n(C)c1=O	3.11
O=C(/C=C/c1ccccc1)N1CCN(Cc2nc3ccccc3c(=O)[nH]2)CC1	-64.7
COC(=O)C1C(O)=C(C=NC2CCCCC2)C(=O)CC1(C)C (centres unmarked)	4.69
COc1ccc(OC)c(S(=O)(=O)N2CCCC(C)C2)c1 (centres unmarked)	-20.9
COc1ccc2c(c1)OC/C(=C/c1cccs1)C2=O	-0.592
O=C(CCn1c(=O)c2ccccc2n(CC(=O)NC2CCCC2)c1=O)NCc1ccco1	-1.49
CCOC(=O)N1CCN(S(=O)(=O)N2CCCC(C(=O)NCCc3ccc(OC)c(OC)c3)C2)CC1 (centres unmarked)	4.82
CCn1nc(NC(=O)c2cccnc2)c2cc3ccccc3nc21	-0.677
Cc1ccc(-n2c(SCC(=O)c3c(N)n(C)c(=O)n(C)c3=O)nc3sc4c(c3c2=O)CCCC4)c(C)c1	1.12
C=CCn1c(=O)c2c(nc3n2CC(C)CN3CCc2ccccc2)n(C)c1=O (centres unmarked)	-72
Cc1cccc(Nc2nc(N)nc(CN3CCC(C(N)=O)CC3)n2)c1C	17.5
Cc1ccc(NC(=S)NC(=O)c2cncc(Br)c2)c(C)c1	17
